Measurements taken from a compilation of properties of binary mixtures (doi:10.1016/j.jct.2022.106909).
The densities may have been worked out from excess volumes.

Experiment: xn = mol fraction of the nth substance listed
Conditions: 100 kPa

CCC(=O)[O-].C[n+]1ccn(CCO)c1 + O
mass density [kg/m3]
Conditions	288.15 K	293.15 K	298.15 K	303.15 K	308.15 K	313.15 K	318.15 K	323.15 K	328.15 K	333.15 K
x1 = 0.7595	1163	1160	–	1153	1150	1147	1144	1140	1137	1134
x1 = 0.8082	1164	1161	1158	1154	1151	1148	1145	–	–	1135
x1 = 0.842	1165	1162	–	1156	1152	1149	–	1143	1140	1136
x1 = 0.8991	1166	1163	1160	1157	–	1150	1147	–	1141	–
x1 = 0.9102	1167	1163	1160	1157	1154	1151	1148	1144	–	1138

CC(=O)[O-].Cn1cc[n+](CCO)c1 + O
mass density [kg/m3]
Conditions	288.15 K	293.15 K	298.15 K	303.15 K	308.15 K	313.15 K	318.15 K	323.15 K	328.15 K	333.15 K
x1 = 0.8317	1163.6	1160.5	–	–	–	1147.7	1144.5	1141.3	1138	1134.8
x1 = 0.8632	1167.5	1164.4	1161.2	1158	1154.8	–	1148.4	1145.1	1141.8	1138.5
x1 = 0.8712	1168.7	1165.5	–	–	1156	–	1149.6	1146.3	–	1139.8
x1 = 0.8818	1170.2	1167	1163.9	1160.7	–	–	1151.1	–	1144.6	–
x1 = 0.9003	1172.2	–	1166	1162.7	1159.5	1156.3	1153.1	1150	1146.6	–
